Here are results for seven molecules from US20250243260A1 (ALPINE IMMUNE SCIENCES, published 2025).

Sequences and labels used below:
B1: CD80_223 variant CD80 IgV-Fc (E10S, V68M, Y87P) (Fc fusion)
chain: VIHVTKEVKSVATLSCGHNVSVEELAQTRIYWQKEKKMVLTMMSGDMNIWPEYKNRTIFDITNNLSIMILALRPSDEGTYECVVLKPEKDAFKREHLAEVTLSVKADGSGGGGS[omitted - human IgG4 Fc with S228P (EU numbers)]
B2: CD80_227 variant CD80 IgV-Fc (V11W, T28H, D46Q, V68L, L85E) (Fc fusion)
chain: VIHVTKEVKEWATLSCGHNVSVEELAQHRIYWQKEKKMVLTMMSGQMNIWPEYKNRTIFDITNNLSILILALRPSDEGTYECVVEKYEKDAFKREHLAEVTLSVKADGSGGGGS[omitted - human IgG4 Fc with S228P (EU numbers)]
B3: CD80_225 variant CD80 IgV-Fc (V11Y, M47L, V68T) (Fc fusion)
chain: VIHVTKEVKEYATLSCGHNVSVEELAQTRIYWQKEKKMVLTMMSGDLNIWPEYKNRTIFDITNNLSITILALRPSDEGTYECVVLKYEKDAFKREHLAEVTLSVKADGSGGGGS[omitted - human IgG4 Fc with S228P (EU numbers)]
B4: CD80_228 variant CD80 IgV-Fc (E7Q, V11Y, R29H, M47L, V68T) (Fc fusion)
chain: VIHVTKQVKEYATLSCGHNVSVEELAQTHIYWQKEKKMVLTMMSGDLNIWPEYKNRTIFDITNNLSITILALRPSDEGTYECVVLKYEKDAFKREHLAEVTLSVKADGSGGGGS[omitted - human IgG4 Fc with S228P (EU numbers)]
B5: CD80_229 variant CD80 IgV-Fc (V11Y, M47V, A71G, L85E) (Fc fusion)
chain: VIHVTKEVKEYATLSCGHNVSVEELAQTRIYWQKEKKMVLTMMSGDVNIWPEYKNRTIFDITNNLSIVILGLRPSDEGTYECVVEKYEKDAFKREHLAEVTLSVKADGSGGGGS[omitted - human IgG4 Fc with S228P (EU numbers)]
B6: CD80_226 variant CD80 IgV-Fc (K9R, A26T, T28Y, E35A, M47L, A71G) (Fc fusion)
chain: VIHVTKEVREVATLSCGHNVSVEELTQYRIYWQKAKKMVLTMMSGDLNIWPEYKNRTIFDITNNLSIVILGLRPSDEGTYECVVLKYEKDAFKREHLAEVTLSVKADGSGGGGS[omitted - human IgG4 Fc with S228P (EU numbers)]
B7: CD80_224 variant CD80 IgV-Fc (K9N, V11W, M47L, V68T, R73T, Y87N) (Fc fusion)
chain: VIHVTKEVNEWATLSCGHNVSVEELAQTRIYWQKEKKMVLTMMSGDLNIWPEYKNRTIFDITNNLSITILALTPSDEGTYECVVLKNEKDAFKREHLAEVTLSVKADGSGGGGS[omitted - human IgG4 Fc with S228P (EU numbers)]

In this test the target is CD28 on Jurkat/IL2-reporter cells (UniProt P10747 19-220, limits assumed). Nature of the test: cell-based or functional assay.
Regarding B1, the “Fold Increase over WT at 50 nM” value amounted to 1.08 fold, the “Rel. Luminescence Units (RLU) 2 nM” value was found to be 2360 RLU, the “Rel. Luminescence Units (RLU) 10 nM” value is 2750 RLU and the “Rel. Luminescence Units (RLU) 50 nM” value turned out to be 2630 RLU. In addition, the “Rel. Luminescence Units (RLU) 250 nM” value amounted to 2980 RLU.
On the same counts, the results for B2 are 0.99 fold, 3000 RLU, 2470 RLU, 2420 RLU and 2520 RLU.
On to B3, for which the “Fold Increase over WT at 50 nM” value came to 2.41 fold, the “Rel. Luminescence Units (RLU) 2 nM” value was found to be 3490 RLU, the “Rel. Luminescence Units (RLU) 10 nM” value was 4450 RLU and the “Rel. Luminescence Units (RLU) 50 nM” value was 5880 RLU. The “Rel. Luminescence Units (RLU) 250 nM” value stood at 7660 RLU.
For B4, the “Fold Increase over WT at 50 nM” value was 1.37 fold, the “Rel. Luminescence Units (RLU) 2 nM” value came to 2880 RLU, the “Rel. Luminescence Units (RLU) 10 nM” value was found to be 3220 RLU and the “Rel. Luminescence Units (RLU) 50 nM” value turned out to be 3340 RLU. Besides, the “Rel. Luminescence Units (RLU) 250 nM” value was 4380 RLU.
B5: the “Fold Increase over WT at 50 nM” value came to 1.08 fold, the “Rel. Luminescence Units (RLU) 2 nM” value turned out to be 2500 RLU, the “Rel. Luminescence Units (RLU) 10 nM” value is 2380 RLU and the “Rel. Luminescence Units (RLU) 50 nM” value stood at 2640 RLU. The “Rel. Luminescence Units (RLU) 250 nM” value stood at 2640 RLU.
Take B6: the “Fold Increase over WT at 50 nM” value amounted to 1.29 fold, the “Rel. Luminescence Units (RLU) 2 nM” value turned out to be 3020 RLU, the “Rel. Luminescence Units (RLU) 10 nM” value is 3100 RLU and the “Rel. Luminescence Units (RLU) 50 nM” value worked out at 3150 RLU. For the same molecule, the “Rel. Luminescence Units (RLU) 250 nM” value was found to be 5450 RLU.
B7: the “Fold Increase over WT at 50 nM” value came to 3.36 fold, the “Rel. Luminescence Units (RLU) 2 nM” value was determined as 3110 RLU, the “Rel. Luminescence Units (RLU) 10 nM” value came to 4170 RLU and the “Rel. Luminescence Units (RLU) 50 nM” value is 8200 RLU. Moreover, the “Rel. Luminescence Units (RLU) 250 nM” value was determined as 13800 RLU.
